Data from PubChem BioAssay AID651582 (Sanford-Burnham Center for Chemical Genomics, 2012).
This is one part of the list. These are further read-outs of the screen, such as a control signal, another cell line or another target. No call is given for them. Compounds called inactive in the main read-out are mostly missing here.

Test: inhibitors of triacylglycerol accumulation, primary screen, cell-based, uHTS, fluorescence, H9c2 (AID 651582)
Conditions: H9c2 cells, Nile Red lipid (TAG) fluorescence; measured here:; at 12.5 µM; cells loaded with 200 µM oleic acid

| Compound | DAPI nuclei signal change (viability), lower = more cytotoxic [%] |
| --- | --- |
| CN(C)CCCn1c(SCC(=O)Nc2nc(-c3cccc(Br)c3)cs2)nc2ccccc2c1=O | -0.52 |
| CCOC(=O)c1cc(CC)sc1NC(=O)c1cc([N+](=O)[O-])ccc1N1CCOCC1 | -30.6 |
| O=C1CCCC2=C1C1(CCCC1)N=C(Nc1nc3cc(-c4ccccc4)ccc3o1)N2 | -16.9 |
| O=C(Nc1cccc(-c2csc(Nc3ccc(Cl)cc3)n2)c1)c1cccc(C(F)(F)F)c1 | -7.06 |
| COC(=O)[C@]1(CC(C)C)N[C@H](c2ccc(-c3ccc(F)cc3)cc2)[C@@H]2C(=O)N(C)C(=O)[C@@H]21 | 3.8 |
| COc1cc(CC(=O)OCC(=O)c2ccc3c(c2)OCCO3)cc(OC)c1OC | -31 |
| CCCCNc1c(-c2ccc(-c3ccc(C(C)=O)cc3)c(OC)c2)nc2cc(C)ccn12 | 41.5 |
| Nc1nc(CCl)nc(Nc2ccc3ccccc3c2)n1 | -41.8 |
| CC(C)(C)c1csc(NNC(=O)c2ccc(Br)cc2)n1 | -20.9 |
| CS(=O)(=O)c1sc(C#N)c2c1C(=O)CC(c1ccccc1)C2 (stereo not drawn) | -40.9 |
| CCCC1O[C@@H]2C[C@H]3[C@@H]4CCC5=CC(=O)C=C[C@]5(C)[C@H]4[C@@H](O)C[C@]3(C)[C@]2(C(=O)CO)O1 (stereo partly drawn) | 23.5 |
| CCCCC(CC)C(=O)Nc1cc(C(=O)NCc2ccc(C)cc2)ccc1N1CCC2(CC1)CC(c1ccccc1)=NO2 (stereo not drawn) | -2.09 |
| Cc1cccc(NC(=O)CSc2cccc3cccnc23)c1 | -22.6 |
| CCCCNC(=O)CSc1nc2ccc(Nc3nc(N4CCOCC4)nc(N4CCOCC4)n3)cc2s1 | -4.95 |
| CSc1nc(NCCN(C)C)c2sc3nc(-c4ccco4)c4c(c3c2n1)CCC4 | 24 |
| CCN(CC)c1ccc(/C=N/Nc2nc(C)cc(C)n2)cc1 | -21.6 |
| O=c1c2c(-c3ccccc3)csc2nc2c3ccccc3c(NCCN3CCOCC3)nn12 | 54.9 |
| CC(C)(C)c1csc(NC(=O)c2cccs2)n1 | -22.3 |
| c1cc2c(cc1Oc1nc(N3CCOCC3)nc(N3CCOCC3)n1)OCO2 | -11.2 |
| C=C(C(=O)c1ccccc1)C(C)C(=C)C(=O)c1ccccc1 | -43.7 |
| CN1CCN(c2ccc([N+](=O)[O-])cc2C(=O)c2ccc(Cl)cc2)CC1 | -36.7 |
| CCOC(=O)c1ccc(NC(=O)c2nc[nH]c2C(=O)NCCCCNC(=O)c2[nH]cnc2C(=O)Nc2ccc(C(=O)OCC)cc2)cc1 | 2.3 |
| CCOc1ccc(Cc2nnc(SCC(=O)Nc3ccccc3)n(N)c2=O)cc1 | 4.52 |
| CNC(=S)NN=C(C)c1ccc(OC)cc1O | -30 |

| Compound | DAPI nuclei signal change (viability), lower = more cytotoxic [%] |
| --- | --- |
| Cc1cc2c(cc1C)CSC(c1ccccc1OC(=O)C(C)C)SC2 | 3.28 |
| CCOc1ccccc1NC(=O)Cn1nnc(C(=O)NCc2ccco2)c1N | -21.5 |
| COCCN1C(=O)c2ccccc2C(C(=O)Nc2ccc3c(c2)OCCO3)C1c1ccc(F)cc1 (stereo not drawn) | -8.98 |
| CC1(C(=O)NCc2ccccc2)Cc2c(-c3cccc(C(N)=O)c3)ccnc2O1 (stereo not drawn) | -41.8 |
| O=C1NC(Cc2ccc(O)cc2)c2nc3ccc(F)cc3c(=O)n2-c2cc3ccccc3cc21 (stereo not drawn) | -43.5 |
| COc1ccc(-n2c(C)cc(C(=O)CCl)c2C)cc1 | -42.8 |
| CC(=O)Nc1cc2cc(NS(=O)(=O)c3ccc(Cl)cc3)ccc2oc1=O | -48.2 |
| C[C@@H]1CN([C@@H](C)CO)C(=O)c2cc(N(C)C)ccc2O[C@@H]1CN(C)Cc1ccncc1 | -29.1 |
| CCCCCc1cc(=O)oc2c(C(CCN3CCCCC3)c3cc(OC)c(OC)c(OC)c3)c(OC)cc(OC)c12 (stereo not drawn) | -34.7 |
| COCCn1cnc2c(c1=O)c1nc3ccccc3nc1n2/N=C/c1ccc(OC)c(OC)c1 | -20 |
| CC(C)(C)C1CCC(CN2C(Nc3ccccc3)=NC[C@@H]2Cc2ccccc2)CC1 (stereo partly drawn) | 6.99 |
| COc1ccc([C@H]2C[C@H](O)[C@@H](n3cc(-c4ccc(F)cc4)nn3)CN2Cc2cccs2)cc1 | -47 |
| COc1cc(OC)c2c(-c3ccccc3)cc(=O)oc2c1C(CCN1CCCC(C)C1)c1ccc(N(C)C)cc1 (stereo not drawn) | -7.21 |
| CCOc1ccc(-n2c(C)cc(C(=O)CCl)c2C)cc1 | -40 |
| CN(C)c1ccc(/C=C/c2ccc3c4ccccc4ccc3[n+]2-c2ccccc2)cc1 | -47.7 |
| Cc1nn2c(NCc3ccccn3)c3c(nc2c1-c1ccccc1)CCC3 | -32.1 |
| Cc1ccc(N=Nc2ccc(O)c3ncccc23)cc1 | -29 |
| COc1cc(CNC(=O)Nc2nc(C(N)Cc3ccc(Cl)cc3)cs2)cc(OC)c1OC (stereo not drawn) | 1.14 |
| CN(C)CCCNC(=O)C[C@H]1C[C@H](C(=O)N2CCCCC2)[C@@]2(CCc3ccccc3)c3[nH]c4cc(-c5ccco5)ccc4c3CCN2C1=O | -11.3 |
| O=C(Nc1ccc(-c2csc(Nc3cccc(C(F)(F)F)c3)n2)cc1)c1cc([N+](=O)[O-])cc(C(F)(F)F)c1 | -31.2 |
| O=C(N/N=C/c1cc([N+](=O)[O-])ccc1O)c1cccc2cc[nH]c12 | -21.9 |
| Cc1ccc(-c2ccc(/C=N\NC(=O)c3cc4c(ccc5ccccc54)o3)o2)cc1[N+](=O)[O-] | 8.77 |
| O=C(Nc1ccc(Cl)cc1)c1nc[nH]c1C(=O)NCCCCNC(=O)c1[nH]cnc1C(=O)Nc1ccc(Cl)cc1 | -25.4 |
| O=C(Nc1nc(-c2ccccc2)cs1)C1CCCN(S(=O)(=O)c2cccc([N+](=O)[O-])c2)C1 (stereo not drawn) | -5.09 |

| Compound | DAPI nuclei signal change (viability), lower = more cytotoxic [%] |
| --- | --- |
| c1ccc(N=Nc2ccc3cccccc2-3)cc1 | -34.8 |
| CCc1ccc2nc(SCC(=O)N3CC(=O)Nc4ccccc43)c(C#N)cc2c1 | -31 |
| COc1ccc(C(C(=O)NC(C)(C)C)N(CC2CCCO2)C(=O)CCC(=O)Nc2cc(C)on2)cc1 (stereo not drawn) | -4.41 |
| COc1cc(C#Cc2c(-c3cncn3C)n(C)c3ccc(-c4ccc5cc[nH]c5c4)cc23)cc(OC)c1 | 63.3 |
| O=C(CCl)N(C/C=C/c1ccccc1)c1ccc2c(c1)OCCO2 | -22.5 |
| Cc1cc(Nc2ccc(C)c(Cl)c2)nc(N2CCOCC2)n1 | -38.3 |
| c1ccc(N=NC2=NN(c3ccccc3)CS2)cc1 | -15.1 |
| CCOC(=O)C(C)Oc1cccc2c(=O)n(CC(=O)NCc3ccc4c(c3)OCO4)ccc12 (stereo not drawn) | -24.6 |
| Cc1nn(-c2ccccc2)c2c1CC(=O)Nc1ccccc1-2 | -28.5 |
| CC(C)CN(C#N)c1nc(N2CCOCC2)nc(N2CCOCC2)n1 | -6.64 |
| CC(C)CC(N)c1csc(NC(=O)Nc2ccccc2Cc2ccccc2)n1 (stereo not drawn) | -43.8 |
| COc1cc(C2C3=C(COC3=O)Oc3cc4c(cc32)OCO4)ccc1O (stereo not drawn) | -37.6 |
| C[C@@]12C(=O)Nc3ccc(Br)cc3C(=O)N1[C@H]1c3cc(Br)ccc3OC[C@@H]1[C@@H]2c1ccccc1 | -23.7 |
| CCOC(=O)c1c(CSC(=N)N)n(-c2ccc(C)cc2)c2cc(Br)c(OC(C)=O)cc12 | -7.23 |
| Cc1ccc(-c2nc(NC(=O)c3cc(C(C)(C)C)nn3C)sc2C)cc1Cl | -25.7 |
| O=C(c1ccoc1)N1CCN(c2cc(-c3ccncc3)nc3cc(-c4cccc(Cl)c4)nn23)CC1 | 43.1 |
| CCN1CCN(Cc2ccc(NC(=O)c3ccc(C)c(NC(=O)c4cncc(-c5cccs5)c4)c3)cc2C(F)(F)F)CC1 | -49.3 |
| COc1cc(OC)nc(Nc2nc(C(N)Cc3ccc(Cl)cc3)cs2)n1 (stereo not drawn) | -29.8 |
| O=C(NCC1CC1)c1onc(CSc2ccncc2)c1C(=O)NCC1CC1 | -35.2 |
| Cc1ccccc1NC(=O)CSc1nc(Nc2ccccc2)nc(N2CCOCC2)n1 | -17.9 |
| CC(C)C[C@H]1CN=C(Nc2ccccc2)N1CC1CCC(C(C)(C)C)CC1 (stereo partly drawn) | -18.5 |
| O=C(Nc1ccc2oc(-c3cccnc3)nc2c1)c1cc2ccccc2o1 | -12.3 |
| O=C(Cn1cc[n+](CC(=O)c2ccc(Cl)cc2Cl)c1)c1ccc(Cl)cc1Cl | -27.2 |
| CN1CCN(c2ccc(Cl)cc2NC(=O)c2nn(-c3ccccc3)c(=O)c3ccccc23)CC1 | -7.4 |

| Compound | DAPI nuclei signal change (viability), lower = more cytotoxic [%] |
| --- | --- |
| COc1ccc(OC)c(N(CCN2C(=O)c3ccccc3C2=O)C(=O)CCl)c1 | -12.9 |
| COc1ccc(NC(=S)N(CCCN2CCCC2)Cc2cccn2Cc2ccc(Cl)cc2)cc1Cl | -18.4 |
| Cc1ccc(NC(=O)CSc2nnc(C)c(=O)n2N)cc1Cl | -7.96 |
| COCCNC(=O)c1cc2c(-c3ccc(Cl)cc3)nn(C)c2s1 | -4.73 |
| COc1cc(NC(=O)Nc2nc(C(N)CCc3ccccc3)cs2)cc(OC)c1OC (stereo not drawn) | -1.63 |
| CNC[C@H](Cc1ccccc1)NC[C@@H](Cc1cccc2ccccc12)NCCc1ccc(C)cc1 | 0.35 |
| O=C(CC1C[C@H](C(=O)N2CCOCC2)[C@@]2(CCC3CCCC3)c3[nH]c4ccccc4c3CCN2C1=O)NCC12CC3CC(CC(C3)C1)C2 (stereo partly drawn) | -16 |
| CC1=C/C(=N\NC(=S)Nc2cccnc2)CC(C)(C)C1 | -44.1 |
| O=C(CCl)N=c1sccn1Cc1ccc(Cl)cc1Cl | -21.4 |
| CC(C)C[C@H]1CNC(=S)N1CC1CCCN1C[C@H](CC(C)C)N1C[C@H](CC(C)C)N(CC2CCCCCC2)C1=S (stereo partly drawn) | -16.2 |
| COc1cc2c(cc1NC(=O)CN1C(=O)NC3(CCc4ccccc43)C1=O)oc1ccccc12 (stereo not drawn) | 0.786 |
| CCN(CC)CCC(=O)N1C/C(=C/c2ccccc2)C(=O)/C(=C\c2ccccc2)C1 | -40.4 |
| O=C(Nc1nc(-c2ccc(S(=O)(=O)N3CCCCCC3)cc2)cs1)c1cccs1 | -11.2 |
| O=C(COC(=O)c1cc([N+](=O)[O-])ccc1N1CCOCC1)Nc1ccc(Cl)cn1 | -11 |
| CC(=NNc1nc2ccccc2s1)c1ccncn1 | -24.8 |
| COCCN1Cc2cccc(C(=O)Nc3cccc(-c4nc5ccccc5[nH]4)c3)c2C1=O | -4.56 |
| CCn1c(SCC(=O)Nc2nc(-c3ccc(C)cc3)cs2)nnc1-c1ccccc1O | -7.79 |
| CCCCOc1ccc(CSC2=NCCN2)cc1[N+](=O)[O-] | -31.8 |
| Nc1ccc2ccccc2c1N=Nc1ccccc1 | -12.1 |
| Oc1c(C(c2ccccn2)N2CCCCC2)cc(Cl)c2cccnc12 (stereo not drawn) | -45 |
| COc1ccc(-c2cnc3c(NC=O)cc(-c4cccc(NS(C)(=O)=O)c4)cn23)cc1OC | -46.4 |
